Experimental data published in the supplement of paper PMC12217912.
This is one part of the list. Sequences were assembled here from the parent chain. Inactive controls read about 0.05.

B1: TEV protease; numbered along this chain (parent)
chain: MGESLFKGPRDYNPISSSICHLTNESDGHTTSLYGIGFGPFIITNKHLFRRNNGTLVVQSLHGVFKVKDTTTLQQHLVDGRDMIIIRMPKDFPPFPQKLKFREPQREERICLVTTNFQTKSMSSMVSDTSCTFPSGDGIFWKHWIQTKDGQCGSPLVSTRDGFIVGIHSASNFTNTNNYFTSVPKNFMELLTNQEAQQWVSGWRLNADSVLWGGHKVFMVKPEEPFQPVKEATQL

Variants of: B1
Assay: raw area under fraction-flipped curve 0-4 h after induction (AUC4h, not background-subtracted), DNA-recorder readout of cleavage of the substrate (dimensionless); higher = more cleavage of the substrate by the protease variant
Conditions: temperature: 34 °C; time window: 0-4 h after rhamnose induction
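Note: Bxb1 expression induced with 0.2% (w/v) L-rhamnose at OD600 near 0.5, cultures sampled hourly, flipped fraction per protease–substrate barcode pair counted by paired-end Illumina sequencing.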

| Variant | area with substrate ENLCFQS | area with substrate ENLFFQS | area with substrate ENLGFQS | area with substrate ENLHFQS | area with substrate ENLKFQS | area with substrate ENLNFQS | area with substrate ENLRFQS | area with substrate ENLVFQS | area with substrate ENLDFQS | area with substrate ENLEFQS | area with substrate ENLLFQS | area with substrate ENLPFQS | area with substrate ENLQFQS | area with substrate ENLSFQS | area with substrate ENLWFQS | area with substrate ENLIFQS | area with substrate ENLMFQS | area with substrate ENLTFQS |
| --- | --- | --- | --- | --- | --- | --- | --- | --- | --- | --- | --- | --- | --- | --- | --- | --- | --- | --- |
| Q97S | 0.0583 | 0.0573 | 0.0872 | 0.0654 | 0.0766 | 0.0707 | 0.0718 | 0.0827 |  |  |  |  |  |  |  |  |  |  |
| R102Q | 0.0697 | 0.0543 | 0.0547 | 0.0622 |  | 0.0464 | 0.0433 |  | 0.0524 | 0.0959 | 0.0489 | 0.0494 | 0.0516 | 0.0597 | 0.0447 |  |  |  |
| Q105G | 0.0706 | 0.0781 | 0.0702 | 0.0721 | 0.0757 | 0.0637 | 0.0603 |  | 0.0651 |  | 0.0573 |  | 0.0587 | 0.0664 |  | 0.0286 | 0.0733 | 0.0771 |
| E107K | 0.0744 | 0.0837 |  | 0.0752 | 0.0731 | 0.0695 |  | 0.0838 |  | 0.0578 |  | 0.0707 | 0.0683 | 0.0372 | 0.0718 | 0.0688 | 0.0768 |  |
| E107N | 0.0812 | 0.113 | 0.0628 | 0.0419 | 0.0774 | 0.0511 | 0.085 |  | 0.0568 | 0.0654 | 0.0729 | 0.0598 |  | 0.0573 |  | 0.104 |  |  |
| E108V | 0.068 | 0.0739 | 0.0605 | 0.0605 | 0.063 | 0.0606 | 0.0759 |  | 0.0604 | 0.0635 | 0.0543 | 0.0528 | 0.0594 | 0.0607 | 0.0458 | 0.0692 |  | 0.0626 |
| T114V | 0.0677 | 0.0928 |  |  | 0.093 | 0.0708 | 0.0411 | 0.0775 | 0.0592 | 0.0671 | 0.0583 | 0.052 |  | 0.0556 | 0.073 |  | 0.0929 | 0.0666 |
| S121D | 0.0685 | 0.0758 | 0.0661 | 0.0733 | 0.0709 | 0.0606 | 0.0708 |  | 0.0546 | 0.0751 | 0.0588 | 0.0514 | 0.0525 | 0.0737 |  | 0.0856 |  |  |
| S121L | 0.0562 | 0.107 |  | 0.0522 | 0.0666 |  |  | 0.0822 | 0.0614 | 0.0706 | 0.0766 |  |  | 0.0614 | 0.0635 | 0.0934 |  | 0.0781 |
| S121V | 0.0749 | 0.0782 |  | 0.0685 | 0.0729 |  |  | 0.0641 | 0.0753 | 0.106 | 0.0647 | 0.0581 |  |  | 0.0632 | 0.0943 |  |  |
| M122H | 0.0704 | 0.101 | 0.0741 | 0.058 | 0.0617 | 0.0637 |  |  | 0.0651 | 0.069 |  | 0.0555 | 0.0568 | 0.0672 |  | 0.0851 |  | 0.0733 |
| S130G | 0.084 | 0.103 | 0.0796 | 0.0753 |  | 0.0723 |  |  | 0.0684 |  |  | 0.0383 |  | 0.063 |  | 0.0847 | 0.0705 |  |
| C131T | 0.0696 | 0.0938 |  | 0.0781 |  | 0.146 |  |  | 0.0648 |  |  | 0.0468 |  | 0.0591 |  | 0.111 |  | 0.0743 |
| T132R | 0.0598 | 0.0631 |  | 0.057 |  | 0.0625 | 0.0538 |  | 0.0646 |  | 0.0632 | 0.0494 |  | 0.0805 |  | 0.0749 |  |  |
| F133Y | 0.0888 | 0.0999 | 0.0538 | 0.0767 | 0.0841 | 0.0377 | 0.0782 |  | 0.0578 |  |  | 0.0612 |  | 0.0489 |  |  | 0.0645 |  |
| G136M | 0.0718 | 0.0831 |  |  | 0.0685 | 0.0629 | 0.0679 | 0.0754 | 0.0512 | 0.0791 | 0.0629 | 0.0444 | 0.0756 | 0.0822 | 0.08 | 0.0825 | 0.0627 |  |
| I139F | 0.0985 | 0.0935 | 0.0705 | 0.0715 | 0.0729 | 0.0959 | 0.0654 |  | 0.0647 |  | 0.0755 | 0.067 | 0.0849 | 0.0643 |  |  |  |  |
| W141Q | 0.0559 | 0.0561 | 0.0506 | 0.0529 | 0.0517 | 0.0565 |  |  | 0.0392 | 0.0651 |  | 0.0552 |  |  | 0.045 |  |  | 0.102 |
| H143L | 0.0546 | 0.0634 | 0.059 | 0.0649 | 0.0627 | 0.0579 | 0.0706 |  | 0.0687 |  | 0.0583 |  |  | 0.0691 |  |  | 0.0622 |  |
| Q151L | 0.0657 | 0.0673 |  | 0.0625 | 0.0567 | 0.136 |  |  | 0.0682 |  |  | 0.0614 | 0.092 | 0.0671 | 0.0535 |  |  |  |
| Q151W | 0.0675 | 0.0993 |  | 0.0695 | 0.0653 | 0.0648 |  | 0.0784 | 0.0686 | 0.0607 | 0.0657 | 0.0675 |  | 0.0599 | 0.0621 |  | 0.0911 |  |
| T159L | 0.0696 |  | 0.0754 | 0.0557 |  | 0.0674 |  |  | 0.0688 | 0.0393 |  | 0.0553 |  | 0.0592 | 0.0598 | 0.0836 | 0.0537 |  |
| D161T | 0.0884 | 0.0755 | 0.0615 | 0.0568 | 0.0834 | 0.0663 | 0.076 | 0.0653 | 0.0555 | 0.0606 |  | 0.0735 | 0.0628 |  | 0.0632 |  | 0.0708 |  |
| F173I | 0.0716 | 0.0824 | 0.0549 | 0.065 | 0.0527 | 0.0661 | 0.069 | 0.0616 | 0.0626 | 0.0552 | 0.0613 | 0.0667 |  | 0.0768 |  |  |  |  |
| F173S | 0.0659 | 0.0619 |  | 0.0576 | 0.0721 |  | 0.0427 |  | 0.0679 |  | 0.0647 | 0.0702 |  | 0.0802 |  |  |  |  |
| N175T | 0.0639 | 0.0768 |  |  |  |  | 0.0836 | 0.0533 | 0.0633 |  |  |  | 0.0627 |  | 0.0441 | 0.0985 |  |  |
| Y179Q | 0.0655 | 0.0621 |  |  | 0.0634 | 0.0566 | 0.0627 | 0.0443 | 0.0575 | 0.056 |  | 0.0644 | 0.0643 | 0.0615 |  | 0.0822 |  |  |
| F180P | 0.0593 |  | 0.0363 |  |  | 0.0623 | 0.0539 |  | 0.0506 |  |  | 0.0414 |  | 0.0595 | 0.0625 | 0.0651 | 0.0755 |  |
| T181Y | 0.0621 | 0.0492 | 0.0633 |  | 0.0878 |  | 0.061 |  | 0.0677 | 0.0668 | 0.0636 | 0.0408 | 0.0683 | 0.0877 |  |  |  |  |
